Measured values taken from paper PMC9813392.
These are yes or no findings as the source states them, for the method shown. In cells and extracts the contact can be indirect. Some entries that bind do so weakly or less than the wild type. Sequences can lack the tags named with a protein. Blank lines part the entries; values can stand above or below the binder they belong to.

What was measured:
[1] = biological target: T1, Orc3p, endogenous, in yeast cell extract (S. cerevisiae (endogenous in yeast cells)) (UniProt P54790); experiment: co-sedimentation; 20–60% sucrose gradient of total extracts from cross-linked NOC3-HA cells grown at 25°C (asynchronous, G1-phase, M-phase); fractions blotted with anti-HA and anti-Orc3
T1 sequence: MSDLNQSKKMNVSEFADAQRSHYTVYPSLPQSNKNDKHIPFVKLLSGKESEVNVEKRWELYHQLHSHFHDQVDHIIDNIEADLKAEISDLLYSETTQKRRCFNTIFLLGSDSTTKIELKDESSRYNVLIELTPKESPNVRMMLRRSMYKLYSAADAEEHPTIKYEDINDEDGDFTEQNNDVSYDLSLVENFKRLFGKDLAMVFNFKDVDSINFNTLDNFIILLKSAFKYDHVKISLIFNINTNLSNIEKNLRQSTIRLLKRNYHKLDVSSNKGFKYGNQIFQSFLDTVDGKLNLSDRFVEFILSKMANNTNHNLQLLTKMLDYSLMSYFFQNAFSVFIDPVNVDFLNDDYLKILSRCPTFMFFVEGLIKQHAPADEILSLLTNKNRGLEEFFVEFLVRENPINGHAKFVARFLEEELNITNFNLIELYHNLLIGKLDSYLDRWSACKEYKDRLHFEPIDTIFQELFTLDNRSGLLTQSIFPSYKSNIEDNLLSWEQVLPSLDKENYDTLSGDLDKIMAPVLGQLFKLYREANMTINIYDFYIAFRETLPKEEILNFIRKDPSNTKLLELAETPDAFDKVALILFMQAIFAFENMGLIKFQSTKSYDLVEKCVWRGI

[2] = biological target: Noc3p, two differently tagged copies (Noc3-FLAG and Myc-Noc3) (S. cerevisiae) (UniProt Q07896); experiment: condition: only 60–80 min after release, cells in S-phase; co-IP; same time course as a8; samples at 60–80 min, cells in S-phase by the text
[3] = biological target: Noc3p, two differently tagged copies (Noc3-FLAG and Myc-Noc3) (S. cerevisiae) (UniProt Q07896); experiment: condition: only cells synchronized in S-phase (hydroxyurea); co-IP; cells synchronized in S-phase by hydroxyurea; anti-FLAG IP
[4] = biological target: Noc3p, two differently tagged copies (Noc3-FLAG and Myc-Noc3) (S. cerevisiae) (UniProt Q07896); experiment: co-IP; G1-phase ORC1-FRB cells grown ± rapamycin (Orc1-FRB nuclear depletion), expressing Myc-Noc3 and Noc3-FLAG; anti-FLAG IP, control mouse IgG
[5] = biological target: Noc3p, two differently tagged copies (Noc3-FLAG and Myc-Noc3) (S. cerevisiae) (UniProt Q07896); experiment: co-IP; cycling (asynchronous) yeast cells; DNase I–digested extracts; IP with anti-FLAG, anti-Myc or the indicated antibodies, control mouse IgG
[6] = biological target: Noc3p, two differently tagged copies (Noc3-FLAG and Myc-Noc3) (S. cerevisiae) (UniProt Q07896); experiment: co-IP; W303-1A cells expressing Noc3-FLAG and Myc-Noc3, synchronized in M-phase and released; samples at 20–60 min after release
[7] = biological target: Noc3p, two differently tagged copies (Noc3-FLAG and Myc-Noc3) (S. cerevisiae) (UniProt Q07896); experiment: condition: only cells synchronized in M-phase (nocodazole); co-IP; cells synchronized in M-phase by nocodazole; anti-FLAG IP
[8] = biological target: Noc3p, two differently tagged copies (Noc3-FLAG and Myc-Noc3) (S. cerevisiae) (UniProt Q07896); experiment: co-IP; cells synchronized in G1-phase by α-factor; anti-FLAG IP
[9] = biological target: Noc3p, two differently tagged copies (Noc3-FLAG and Myc-Noc3) (S. cerevisiae) (UniProt Q07896); experiment: co-IP; YL1923 (MET-CDC6) cells released from M-phase into α-factor, ± methionine (Cdc6p depletion); anti-FLAG IP, control IgG

binding [1]: binds
B1: Noc3-HA (endogenous Noc3p tagged with HA, NOC3-HA cells) (protein, UniProt Q07896 1-663)
chain: MAKRNRSQFRIQERTAKKRKHEDSLLEGNVFQNAPEDMDENTIYSAKGSSWDEEEQDYEMVPRKNRSDTSNLVEGLPIKVNGKVERKLHKAQEKPKDDDEEDEDSNDSSEDDEGPNEEQEAEAKEDEPDTEEKILQLKEDIADLVTKVMEEPEENTAALGRLCKMVESKNPNTCKFSMLALVPVFKSIIPGYRIRPLTETEKKEKVSKEVSKLRNFEQALVYNYKNYVGRLQSLSKTPSNAAPIQVSLGILATQAAKELISTASHFNFRTDIFTLLLRRICKPRISTDPTSIQIIQTFETLLNEDEEGSISFEILRIFNKILKTRNFNIEESVLNMLLSLDVLHDYDPNTKLKGNVSAPKLKKKDRVHLSKKQRKARKEMQQIEEEMRNAEQAVSAEERERNQSEILKIVFTIYLNILKNNAKTLIGSVLEGLTKFGNMANFDLLGDFLEVMKELISDTEFDNLSSAEVRKALLCIVSAFSLISNTQYMKVNVDLSKFVDGLYALLPYICLDADIELSYRSLRLADPLNNEIIKPSVNVSTKAELLLKALDHVFFRSKSGTKERATAFTKRLYMCISHTPEKTSIAILKFIDKLMNRYPEISGLYSSEDRIGNGHFIMEADNPSRSNPEAATLWDNALLEKHYCPVVTKGLRSLSSRSKECSK

binding [2]: no binding
binding [3]: no binding
binding [4]: binds
binding [5]: binds
binding [6]: binds
binding [7]: no binding
binding [8]: binds
binding [9]: binds
B2: Noc3p, two differently tagged copies (Noc3-FLAG and Myc-Noc3) (protein, UniProt Q07896 1-663)
chain: B1 chain
